# Measurements reported in the supplement of paper PMC8728848.
# This is one part of the list.
# B1: LSectin (Mus musculus), Q8BNX1 (protein)
# chain: MNTGEYNKLGSAIEEVSRGQLGRWECYKQRLFFLVLALLVATVLWALILSTLLSSASSKLRVLLSHQDLLRTNASEQKMTLSSLKDDIGACRNCCSVTKAQLQTTLAEFKDIQAKLMEQESILKELQERVTQDLAKASRDRENIRSELFQALEAVKRQNSSCEQCPPSWLPFQGSCYYFSETQATWDTAQSYCGGQGAHLVIVRGLNEQGFLSQHTRGRGYWLGLRAVRHLNKIQGYRWVDGASLNFSHWNSGEPNDSRGHEDCIMMLHSGLWNDAPCTNERDGWICEKRSSCY
# Target: Neu5Gc(b2-6)Gal(b1-4)GlcNAc
# Experiment: glycan array binding signal (z-score within array); higher = stronger binding
# Conditions: glycan notation: IUPAC condensed, linker removed
# Summary of the method: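 Glycan array binding is given as a within-array Z-score, which can be read as non-binding when negative. The arrays, 3228 of them, came from the Consortium for Functional Glycomics database and were retained only where the protein sequence was available. Z-scores were averaged across arrays of the same protein sequence at different concentrations or buffers and across linkers.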
binder,measurement,value
B1,glycan array binding signal (z-score),-0.158
